Data taken from PubChem BioAssay AID686979 (National Center for Advancing Translational Sciences (NCATS), 2013).
Screen size: about 420,000 compounds; about 50,000 (12%) were called active. Inconclusive results, whose numbers are uncertain, are shown with a selection of clear calls. The call rests on the fitted dose curve; in most records, active means well fitted inhibition curve with a large enough effect; inconclusive means small, poorly fitted or top-dose-only effect; inactive means flat fitted curve, though single readings scatter. No potency is given beside an inconclusive call; the fits are too rough.

assay: qHTS for Inhibitors of human tyrosyl-DNA phosphodiesterase 1 (TDP1): qHTS in cells in presence of CPT; details: chicken DT40 Tdp1-/-;hTDP1 cells + 20 nM CPT, ATP luminescence, 48 h; activity change, negative = growth inhibition: at 46.2 µM (top of the series); further: nearly all actives have a fitted effect of over 55% in size
Method in brief: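 Chicken DT40 Tdp1-/- cells complemented with human TDP1, 400 cells/well, exposed to compounds plus 20 nM camptothecin for at least 48 h at 37 C; viability read as ATP content by CellTiter-Glo luminescence.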
On the % scale 0 is the no-effect control and ±100 the full control effect; potency means the concentration at half of the fitted maximal effect; tags describe the fitted curve by direction and shape.

Q: For `O=C(NCCc1ccccc1)c1ccc(CSc2nc3ccncc3n2Cc2ccc(F)cc2)cc1`, which Potency is on record?
A: inconclusive [inhibitor, single point]

Q: With `CCOc1ccc(NC(=O)C2CCN(c3nnnn3-c3ccccc3)CC2)cc1` as the molecule, how does the “activity change, negative = growth inhibition” value read?
A: inactive: -3.97%

Q: With `CN(Cc1ccccc1)c1ccc(C(CC(N)=O)NC(=O)c2ccccc2)cc1[N+](=O)[O-]` (stereo not drawn) as the molecule, how does the Potency read?
A: active: 23.1 µM

Q: With `O=[N+]([O-])c1cc([N+](=O)[O-])c(Oc2c(F)cc(F)cc2F)cc1NN1CCCCC1` as the molecule, how does the Potency read?
A: inconclusive [inhibitor, single point]

Q: For `CCc1ccc(NC(=O)CSc2nc3n[nH]c(C)c3c(=N)n2-c2cccc(OC)c2)cc1`, which Potency is on record?
A: active: 18.4 µM

Q: For `CN(Cc1ccccc1)C(=O)c1ncn(C)c1C(=O)N(C)Cc1ccccc1`, which “activity change, negative = growth inhibition” value is on record?
A: inactive: -11.7%

Q: With `O=C(Nc1ccc2c(c1)OCCO2)C(c1ccnc2ccccc12)N1CCN(c2ccc(F)cc2)CC1` (stereo not drawn) as the molecule, how does the Potency read?
A: inconclusive [inhibitor, single point]

Q: Which Potency does the source give for `CCCCOC1CC(c2ccc(OCc3ccc(OC)cc3)c(OC)c2)N(C)O1` (stereo not drawn) here?
A: inconclusive [inhibitor, single point]

Q: Which Potency does the source give for `CCn1cc(C2=NCC(C)O2)c2ccccc21` (stereo not drawn) here?
A: inconclusive [inhibitor, single point]

Q: For `CCN(C(=O)COC(=O)[C@H](C)N=C1NS(=O)(=O)c2ccccc21)C1CCS(=O)(=O)C1` (stereo partly drawn), which “activity change, negative = growth inhibition” value is on record?
A: inactive: -10.4%

Q: For `COc1ccc(C2CC(c3ccc4ccccc4c3)=NN2C(=O)CN2CCC(C(N)=O)CC2)cc1` (stereo not drawn), which Potency is on record?
A: inconclusive [inhibitor, single point]

Q: For `CCN(C[C@H]1N[C@@](CC)(C(=O)OC)[C@H]2C(=O)N(C)C(=O)[C@@H]12)S(=O)(=O)c1ccc(-c2ccccc2)cc1`, which Potency is on record?
A: inconclusive [inhibitor, single point]

Q: For `CCc1ccc(Nc2cnn(-c3nc4ccccc4s3)c(=O)c2Cl)cc1`, which Potency is on record?
A: inconclusive [inhibitor, single point]

Q: For `Cc1ccc(NC(=O)CCn2nnc3ccccc32)cc1`, which “activity change, negative = growth inhibition” value is on record?
A: inactive: -4.3%

Q: Which “activity change, negative = growth inhibition” value does the source give for `Cc1ccccc1OCC(O)CN(CCO)Cc1ccccc1` (stereo not drawn) here?
A: inactive: -4.39%

Q: With `Cc1ccc(S(=O)(=O)N2CCOCC2)cc1C(=O)N1CCN(S(=O)(=O)c2cccs2)CC1` as the molecule, how does the “activity change, negative = growth inhibition” value read?
A: inactive: -14.2%

Q: With `COc1ccc(CCNc2ccncn2)cc1` as the molecule, how does the Potency read?
A: active: 9.2 µM

Q: Which Potency does the source give for `Cc1ccc(C)c(Cn2nc(-c3cc(C)ccc3C)ccc2=O)c1` here?
A: inconclusive [inhibitor, single point]

Q: With `c1ccc(CNc2nc(-c3cccnc3)nc3ccccc23)cc1` as the molecule, how does the Potency read?
A: inconclusive [inhibitor, single point]

Q: For `O=C(C1=COCCO1)N(Cc1nnc(-c2ccc(Cl)cc2)o1)C1CC1`, which Potency is on record?
A: inconclusive [inhibitor, single point]

Q: With `CCC(C)(C)n1nnnc1C(c1cccc(C#N)c1)N1CCN(c2cccc(C)c2C)CC1` (stereo not drawn) as the molecule, how does the Potency read?
A: inconclusive [inhibitor, single point]

Q: For `COc1ccc(-c2nc3ccccc3o2)cc1NC(=O)COc1ccc(C(C)(C)C)cc1`, which Potency is on record?
A: inconclusive [inhibitor, partial curve, poor fit]

Q: For `Cc1ccc(S(=O)(=O)C/N=C(/NC(=S)N(c2ccccc2)c2ccccc2)c2ccccc2)cc1`, which Potency is on record?
A: inconclusive [inhibitor, partial curve]

Q: With `O=C(CCc1ccccc1Cl)Nc1ccc(S(=O)(=O)N2CCOCC2)cc1` as the molecule, how does the Potency read?
A: inconclusive [inhibitor, single point]

Q: For `COc1cccc(N2CC(NC(=O)c3ccc(S(=O)(=O)N4CCCCC4)cc3)CC2=O)c1` (stereo not drawn), which Potency is on record?
A: inconclusive [inhibitor, single point]

Q: For `CC(=O)c1c(C)[nH]c(C(=O)Nc2ccccc2Cl)c1C`, which Potency is on record?
A: inconclusive [inhibitor, partial curve, poor fit]

Q: For `CCOc1ccc(S(=O)(=O)NCC(c2ccco2)S(=O)(=O)c2ccc(F)cc2)cc1` (stereo not drawn), which Potency is on record?
A: inconclusive [inhibitor, single point]

Q: Which “activity change, negative = growth inhibition” value does the source give for `CC(Oc1ccccc1)C(=O)NCc1cccnc1` (stereo not drawn) here?
A: inactive: -22.1%

Q: With `C#CCn1c(=NC(=O)c2cccs2)sc2cccc(OC)c21` as the molecule, how does the Potency read?
A: inconclusive [inhibitor, single point]

Q: For `CC1CCCCC1NC(=O)CN1C(=O)CSc2cc(S(=O)(=O)N3CCCCCC3)ccc21` (stereo not drawn), which Potency is on record?
A: inconclusive [inhibitor, single point]

Q: For `Cc1ccc(S(=O)(=O)Nc2ccccc2/C=N/c2nc3ccccc3n2C(C)C)cc1`, which Potency is on record?
A: active: 18.4 µM

Q: For `Cc1ccc(CN2C(=O)C3(c4ccccc42)N(c2cccc(C(F)(F)F)c2)C(=O)CS3(=O)=O)cc1` (stereo not drawn), which Potency is on record?
A: inconclusive [inhibitor, partial curve]

Q: Which “activity change, negative = growth inhibition” value does the source give for `CCC(C)[C@H](N)C(=O)NC[C@H]1CC[C@H](C(=O)N[C@@H](Cc2ccccc2)C(=O)O)CC1` (stereo partly drawn) here?
A: inactive: 21%

Q: Which Potency does the source give for `COc1ccc(OC)c2c1C(=O)C(Cl)=C(Cl)C2=O` here?
A: active: 0.231 µM

Q: With `Cc1nnc(NCc2ccccc2)c2c1nnn2Cc1ccc(F)cc1` as the molecule, how does the activity change, negative = growth inhibition read?
A: inconclusive: -30.3% [inhibitor]

Q: With `CCCNC(=O)C1(C)CCN(C(=O)c2sccc2C)C1` (stereo not drawn) as the molecule, how does the “activity change, negative = growth inhibition” value read?
A: inactive: 1.14%

Q: For `COc1cccc(C(=O)N/N=C/C(Br)=C/c2ccccc2)c1`, which Potency is on record?
A: active: 1.84 µM

Q: For `Cc1nc2sc(C(c3ccco3)N3CCN(c4ccccc4)CC3)c(O)n2n1` (stereo not drawn), which Potency is on record?
A: inconclusive [inhibitor, single point]

Q: With `COc1ccccc1NC(=O)CSc1oc(-c2cccs2)nc1S(=O)(=O)c1ccccc1` as the molecule, how does the Potency read?
A: inconclusive [inhibitor, single point]

Q: With `Cc1oc(-c2ccc(Cl)cc2)nc1CS(=O)CC(=O)NCCCN(C)C1CCCCC1` (stereo not drawn) as the molecule, how does the Potency read?
A: inconclusive [inhibitor, single point]

Q: With `CCN(CC)Cc1c(O)ccc2c([N+](=O)[O-])c(C)n(-c3ccc(OC)cc3)c12` as the molecule, how does the Potency read?
A: active: 7.31 µM

Q: For `COC(=O)C(C)SC1=N/C(=C/c2ccc(-n3cncn3)cc2)C(=O)N1` (stereo not drawn), which Potency is on record?
A: inconclusive [inhibitor, single point]

Q: Which Potency does the source give for `CCOC(=O)C1CCN(c2ncnc3c2c(-c2ccccc2)cn3-c2ccccc2)CC1` here?
A: inconclusive [inhibitor, single point]

Q: Which “activity change, negative = growth inhibition” value does the source give for `CC1CCCN(C(=O)COC(=O)Cc2c(F)cccc2Cl)C1` (stereo not drawn) here?
A: inactive: -6.81%

Q: With `OC(c1ccc(-c2ccccc2)cc1)c1ncc(-c2ccccc2F)[nH]1` (stereo not drawn) as the molecule, how does the Potency read?
A: inconclusive [inhibitor, partial curve, poor fit]

Q: Which Potency does the source give for `Cc1ccccc1OCC(=O)Nc1ccc(N2CCN(C(=O)C(C)C)CC2)c(Cl)c1` here?
A: active: 13 µM

Q: For `CCNC(=S)SCCOc1ccc(C)cc1`, which “activity change, negative = growth inhibition” value is on record?
A: inactive: 4.62%

Q: Which Potency does the source give for `C[C@H](NC(=O)c1nc[nH]c1C(=O)NCc1ccccc1)c1ccccc1` here?
A: inconclusive [inhibitor, single point]

Q: With `Cc1cccc(NC(=O)c2nc[nH]c2C(=O)N[C@@H](Cc2ccccc2)C(=O)OC(C)(C)C)c1` as the molecule, how does the Potency read?
A: inconclusive [inhibitor, single point]

Q: With `CC(C)c1ccccc1NC(=O)Nc1nnc([C@@H]2C[C@H](O)[C@@H](CO)O2)s1` as the molecule, how does the “activity change, negative = growth inhibition” value read?
A: inactive: 10.9%

Q: For `CC1(C(=O)NS(=O)(=O)C2CC2)CCCN(C(=O)c2cccc(Cl)c2)C1` (stereo not drawn), which Potency is on record?
A: active: 7.31 µM

Q: For `COc1ccc(OC)c(NC(=O)CN2C(=O)CCc3cc(S(=O)(=O)N4CCCCC4)ccc32)c1`, which Potency is on record?
A: active: 25.9 µM

Q: Which “activity change, negative = growth inhibition” value does the source give for `O=S(=O)(O)c1ccc(Cl)c(Cl)c1` here?
A: inactive: -0.0345%

Q: Which “activity change, negative = growth inhibition” value does the source give for `NC(=O)CC[C@H](NC(=O)c1ccc(F)cc1)C(=O)OCC(=O)Nc1ccc(N2CCOCC2)cc1` here?
A: inactive: -11%

Q: Which Potency does the source give for `COc1ccc(C(=O)Nc2ccc(C3(C#N)CCCC3)cc2)cc1OC` here?
A: inconclusive [inhibitor, single point]

Q: For `CCC(=O)N(C1=C(NC)C(=O)c2ccccc2C1=O)C(C)C`, which Potency is on record?
A: active: 2.06 µM

Q: For `CC12CCC(=O)N1C(C(=O)Nc1cccc(S(=O)(=O)N3CCCCCC3)c1)CS2` (stereo not drawn), which “activity change, negative = growth inhibition” value is on record?
A: inactive: -23.5%

Q: Which Potency does the source give for `COCc1cc(N2CCN(c3ccccc3F)CC2)nc(-c2ccccc2)n1` here?
A: inconclusive [inhibitor, partial curve, poor fit]

Q: For `CCOc1ccc(-c2ccc(SCc3ccccn3)nn2)cc1`, which Potency is on record?
A: inconclusive [inhibitor, partial curve, poor fit]

Q: With `COc1ccc(Oc2ncc3nc(CCc4ccccc4)c(=O)n(C[C@H]4CCCO4)c3n2)cc1` as the molecule, how does the Potency read?
A: inconclusive [inhibitor, single point]

Q: Which Potency does the source give for `CCCN(C(=O)c1ccco1)c1nnc(-c2ccccc2C)s1` here?
A: inconclusive [inhibitor, single point]

Q: For `CCOC(=O)CN1C(=O)/C(=C/c2ccccc2Br)Oc2ccccc21`, which Potency is on record?
A: inconclusive [inhibitor, partial curve]

Q: With `CSCCC(NC(=O)COc1ccccc1)C(=O)N(C)Cc1c(F)cccc1Cl` (stereo not drawn) as the molecule, how does the Potency read?
A: active: 20.6 µM

Q: With `COc1cccc(N2CCN(C(=O)c3cnn(-c4ccc(C)cc4C)c3C3CCN(C(=O)OC(C)(C)C)CC3)CC2)c1` as the molecule, how does the Potency read?
A: inconclusive [inhibitor, single point]

Q: For `O=C(CCCN1C(=O)/C(=C/c2ccccc2)SC1=S)NCCCn1ccnc1`, which Potency is on record?
A: inconclusive [inhibitor, single point]

Q: Which Potency does the source give for `CC(C(=O)Nc1nc(-c2ccc(F)c(F)c2)cs1)N1C(=O)C2CC=CCC2C1=O` (stereo not drawn) here?
A: inconclusive [inhibitor, single point]

Q: For `O=C(O)c1cc(-c2ccc(/C=N/NC(=S)Nc3ccccc3)o2)ccc1Cl`, which “activity change, negative = growth inhibition” value is on record?
A: inactive: -5.08%

Q: For `CC1(Oc2cnc(Cl)c3ccccc23)CCN(Cc2ccc(-c3ccccn3)cc2)C1` (stereo not drawn), which Potency is on record?
A: inconclusive [inhibitor, single point]
